SMILES strings stand for the structures. Screen size: about 310,000 compounds; about 14,000 (4.5%) showed an effect of 50% or more. The effect is printed as a negative number. The list shows a part of the results.
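Also: peak tail current of the secondary pulse compared with the same well before compound.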

The target in the assay is human ether-à-go-go-related gene (hERG) potassium channel (human, UniProt Q12809). As to the kind of experiment: primary screen, population patch clamp on CHO cells stably expressing hERG.
Chain of human ether-à-go-go-related gene (hERG) potassium channel (Q12809 whole entry, looked up): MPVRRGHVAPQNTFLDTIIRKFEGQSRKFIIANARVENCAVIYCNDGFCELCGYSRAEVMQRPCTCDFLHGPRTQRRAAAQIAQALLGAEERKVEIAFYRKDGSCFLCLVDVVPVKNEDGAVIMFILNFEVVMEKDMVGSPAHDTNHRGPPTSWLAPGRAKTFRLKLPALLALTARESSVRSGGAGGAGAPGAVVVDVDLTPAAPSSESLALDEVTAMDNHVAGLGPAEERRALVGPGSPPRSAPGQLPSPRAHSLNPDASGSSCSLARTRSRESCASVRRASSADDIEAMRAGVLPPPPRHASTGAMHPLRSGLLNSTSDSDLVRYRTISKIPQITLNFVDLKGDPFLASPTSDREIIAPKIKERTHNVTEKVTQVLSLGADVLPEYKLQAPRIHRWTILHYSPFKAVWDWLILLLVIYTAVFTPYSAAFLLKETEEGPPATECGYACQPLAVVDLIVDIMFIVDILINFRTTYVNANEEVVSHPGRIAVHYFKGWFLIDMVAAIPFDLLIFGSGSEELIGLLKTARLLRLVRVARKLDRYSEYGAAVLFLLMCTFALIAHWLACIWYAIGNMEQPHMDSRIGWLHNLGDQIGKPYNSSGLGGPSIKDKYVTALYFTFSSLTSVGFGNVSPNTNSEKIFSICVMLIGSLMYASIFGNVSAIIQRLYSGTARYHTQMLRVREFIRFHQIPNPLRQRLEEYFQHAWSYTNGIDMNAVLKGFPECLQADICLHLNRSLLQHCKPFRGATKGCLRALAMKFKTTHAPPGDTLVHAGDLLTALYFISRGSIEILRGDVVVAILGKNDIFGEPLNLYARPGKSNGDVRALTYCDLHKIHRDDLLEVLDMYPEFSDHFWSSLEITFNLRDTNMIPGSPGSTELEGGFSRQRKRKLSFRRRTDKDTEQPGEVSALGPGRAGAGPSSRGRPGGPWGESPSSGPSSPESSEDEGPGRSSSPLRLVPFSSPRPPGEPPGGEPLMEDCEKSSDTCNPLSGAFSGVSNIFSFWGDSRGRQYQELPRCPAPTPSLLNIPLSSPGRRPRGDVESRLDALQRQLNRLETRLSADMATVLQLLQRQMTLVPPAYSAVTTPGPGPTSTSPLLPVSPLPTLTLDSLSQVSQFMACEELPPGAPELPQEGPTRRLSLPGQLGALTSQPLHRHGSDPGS
As for `O=C(NCCNC(=O)c1ccccc1)c1ccccc1`, the “hERG current change (%, negative = inhibition) at 10uM” value came to 2.89%.
Then `CC(Oc1ccc(Cl)cc1Cl)C(=O)/C=C/N(C)C` (centres unmarked), with -7.41%; and `COc1ccccc1CCN1C(=S)NC(C)(C)CC1(C)O` (centres unmarked), with 17%.
Under `COc1ccc(C(=O)NCC(=O)NCC(=O)OCc2ccc(Br)cc2)cc1` stands -10.3%; under `COc1cccc(C2CCCN2Cc2nc(-c3cnccn3)no2)c1` (centres unmarked), 7.84%; under `CCCNC(=O)Cn1sc2nc(C)cc(C)c2c1=O`, -6.1%.
`Cc1c(C(C)C)c(=O)n(-c2ccc(S(=O)(=O)NC3CC3)cc2)n1C`: the “hERG current change (%, negative = inhibition) at 10uM” value stood at 27%.
With `Cc1nn(CC(=O)Nc2c(F)c(F)cc(F)c2F)c(=O)c2cccn12`, the “hERG current change (%, negative = inhibition) at 10uM” value was found to be 9.48%.
Under `O=C(O)C1=C[C@@H](c2ccc3c(c2)OCO3)C[C@@H](OCc2ccc(CO)cc2)O1` stands 8.82%.
For `O=[N+]([O-])c1cccc(/C=N/n2c(C3CCCCC3)n[nH]c2=S)c1`, the “hERG current change (%, negative = inhibition) at 10uM” value is 11.9%.
Under `CCOC(=O)N1CCN(CC(=O)Nc2sc(CC)cc2C(=O)c2ccc(OC)cc2)CC1` stands 1.54%; under `COc1ccc(S(=O)(=O)N2CCCN(CC(=O)C(C)(C)C)CC2)cc1`, 4.55%; under `COc1ccc2[nH]c(=O)c(CN(CCCN(C)C)C(=O)Nc3ccccc3)cc2c1`, -29.2%.
Regarding `COc1cc(C2Nc3c(F)cccc3C3C=CCC32)cc(Br)c1OC` (centres unmarked), the “hERG current change (%, negative = inhibition) at 10uM” value came out at 2.96%.
Then `Cc1cc(-c2nnc(SCC(=O)Nc3ccc(S(N)(=O)=O)cc3)n2N)n[nH]1`, with -0.116%.
Then `Cc1cc(C)c2ccc(=O)n(CC(=O)N/N=C/c3ccccc3Cl)c2n1`, with 3.67%.
Under `COC(=O)c1nnn(-c2nonc2N)c1CSCCO` stands 14.6%; under `O=C(CSc1nnnn1C1CCCC1)NCCc1ccccc1`, -15.7%; under `Cc1nn(-c2ccccc2)c(Cl)c1/C=C(\C#N)C(=O)NC(C)C`, -43.9%.
As to `COC1=C(C)C(=O)O[C@]12C(=O)C(C)=C1CCCCN3[C@H]([C@@H]4C[C@H](C)C(=O)O4)CC[C@]132`, the “hERG current change (%, negative = inhibition) at 10uM” value is on record as -0.333%.
Under `CN(C)c1ccc(C(=O)c2ccccc2C(=O)O)c(O)c1` stands 12.7%; under `COc1ccccc1NC(=O)c1oc2ccccc2c1NC(=O)C1CC1`, 1.76%.
Under `CC1CCCN(S(=O)(=O)c2ccc(C(=O)Nc3nnc(C4=COCCO4)o3)cc2)C1` (centres unmarked) stands 13.9%.
Under `COc1ccccc1NS(=O)(=O)c1cc(NC(=O)c2ccc(Cl)nc2)ccc1Cl` stands -8.1%; under `C=CCOC(=O)C1=C(C)NC(SCC(N)=O)=C(C#N)C1c1cccs1` (centres unmarked), -13.1%.
With `COc1ccc(-c2nnn(CC(=O)N(Cc3cccs3)C(C)C(=O)NCCC(C)C)n2)cc1OC` (centres unmarked), the “hERG current change (%, negative = inhibition) at 10uM” value is -13.7%.
Then `O=C(Nc1ccccc1F)NC1CCN(Cc2nnnn2Cc2ccc(F)cc2)CC1`, with -69.2%; and `COc1cc(OC)cc(-c2c(-c3cccs3)c3cc(-c4ccc5cc[nH]c5c4)ccc3n2C)c1`, with 21.7%.
Then `Cc1nn(C)c(Oc2cccc(Cl)c2)c1C(=O)Nc1ccc(F)cc1`, with -15.3%.
Under `COc1ccc(OC)c(Nc2nc(-c3c(C)nc4ncccn34)cs2)c1` stands -24.7%.
`COC(=O)c1ccccc1NC(=O)C/C(C)=N/NC(=O)CC#N`: the “hERG current change (%, negative = inhibition) at 10uM” value came to 19%.
Take `Cn1c(=O)[nH]c(=O)c2c1nc(N1CCCCC1)n2CCCSc1nc2ccccc2s1`: the “hERG current change (%, negative = inhibition) at 10uM” value is reported as -36.3%.
Under `COc1ccc(-c2cc(C(=O)OCC(=O)NC(C)(C)C)c3ccccc3n2)cc1` stands 1.6%; under `COc1ccc(-n2c(=O)c3c4c(sc3n(CC(=O)Nc3cc(C)[nH]n3)c2=O)CCCC4)c(OC)c1`, 12.4%; under `CN(C)S(=O)(=O)c1ccc(NC(=O)/C=C/c2ccccc2Cl)cc1`, 0.456%.
Then `CC[C@H](C)[C@@H]1O[C@@]2(C=CC1C)CC1C[C@@H](CC=C(C)C(O[C@H]3CC(OC)C(O[C@H]4CC(OC)C(O)C(C)O4)C(C)O3)C(C)C=CC=C3CO[C@@H]4C(O)C(C)=C[C@@H](C(=O)O1)[C@]34O)O2` (some centres unmarked), with -3.67%; and `CCN1CCN(Cc2ccc(NC(=O)Nc3ccccc3OC)cc2)CC1`, with -3.45%.
Then `O=C(Nc1ccc(O)c2c(=O)cc(-c3cccc(Cl)c3)oc12)c1cccc(Cl)c1`, with 2.03%; and `COC(=O)c1ccc(CNC(=O)c2ccc3c(c2)NC(=O)CS3)cc1`, with 2.31%; and `COc1cccc(CN2CCN(Cc3cccc(Oc4ccccc4)c3)CC2)c1OC.O=C(O)C(=O)O`, with -21.7%.
As to `COc1ccc(OC(C)c2ccc(C#N)c(=O)[nH]2)cc1` (centres unmarked), the “hERG current change (%, negative = inhibition) at 10uM” value is recorded as -2.78%.
Then `CC(=O)Nc1nonc1NC(=O)COc1ccccc1`, with 8.79%; and `O=C1CCCc2c1nc(-c1ccccc1)n2O`, with 6.59%; and `CC(C)Cc1ccccc1O`, with -1.45%.
Then `CNC(=O)C(=O)N1CCC2(CC1)OCCN2S(=O)(=O)c1ccc(C)cc1`, with -0.68%; and `Cn1c(=O)c2c(nc(CN3CCN(C(=O)c4ccco4)CC3)n2CC(N)=O)n(C)c1=O`, with 24.4%.
Under `Cc1ccc(Nc2nnc(SCC(=O)NCCN3C(=O)CSC3=O)s2)cc1C` stands -14.7%; under `Cc1nc2c(C)cccc2c2c1CCS2`, 0.813%.
`CCOC(=O)N1CCN(C(=O)CN(c2ccc(C)c(C)c2)S(=O)(=O)c2ccccc2)CC1`: the “hERG current change (%, negative = inhibition) at 10uM” value is -26.5%.
`CC(=O)N1c2ccc(S(=O)(=O)NCCC(=O)Nc3ccc(C)cn3)cc2CC1C` (centres unmarked): the “hERG current change (%, negative = inhibition) at 10uM” value is reported as 11.6%.
In the case of `O=C1OC(c2ccc(Cl)cc2)=N/C1=C\c1cccnc1`, the “hERG current change (%, negative = inhibition) at 10uM” value is listed as 11.8%.
Under `Oc1cccc(NC(=S)Nc2cccnc2)c1` stands 10.9%; under `COC(=O)c1nn(-c2ccccc2)c(Cl)c1/C=N/OCc1ccc(Cl)cc1Cl`, 20.6%.

Source of the values: paper PMC4336329 (PLoS ONE, 2015).
